Results: ChEMBL document CHEMBL1201862, “PubChem BioAssay data set” (2004)
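Dose response: 5 concentrations. Exposure: 48 h. Format: 96-well plates. Endpoint: linear interpolation; highest concentration if not reached. At the GI50, growth is halved.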 Activity calls are given as the source filed them. Rule as the data show it: active = GI50 up to about 1.1 µM and inactive = higher.

tested on: NCI-H322M; assay: NCI tumour cell line growth inhibition, 48 h

SMILES	GI50
N#C/C(=C\c1ccc([N+](=O)[O-])o1)c1n[nH]c(Cc2ccccc2)n1	inactive: 15 µM
Cc1cc(S(=O)(=O)Nc2n[nH]c(-c3ccc(Cl)cn3)n2)c(S)cc1Cl	inactive: 48.8 µM
CCOC(=O)C(NC(C)=O)(Nc1ccc(F)cc1)C(F)(F)F (stereo unspecified)	inactive: > 100 µM
C=C(C)CN(CC#N)CC(=C)C	inactive: > 100 µM
O=C(O)c1ccc(C(=O)c2ccccc2)c(C(=O)O)c1	inactive: > 100 µM
CCN(CC)Cc1ccc(Nc2c3ccccc3nc3ccccc23)cc1	inactive: 3.45 µM
COC(=O)c1c(O)ccc2c1c1c(n2Cc2ccccc2)C(=O)c2ccccc2C1=O	inactive: 14.2 µM
N#CN1CCC2CC(=O)CCC2C1 (stereo unspecified)	inactive: > 100 µM
Cn1cccc(C(=O)c2ccccc2)c1=O	inactive: > 100 µM
CC(=O)OC1CCC2(C)C(=CCC3C2CCC2(C)C(C(C)C(=O)O)CCC32)C1 (stereo unspecified)	inactive: 89.3 µM
O=C(OCCN=C1c2ccccc2CCc2ccccc21)c1cc([N+](=O)[O-])cc([N+](=O)[O-])c1	inactive: > 10 µM
O=[N+]([O-])c1cc(/C=N\NS(=O)(=O)c2ccc(Cl)cc2)c(O)c([N+](=O)[O-])c1	inactive: 52.4 µM
COc1cc([C@@H]2c3cc4c(cc3[C@@H](NCCNCCO)[C@H]3COC(=O)[C@H]23)OCO4)cc(OC)c1O	inactive: 5.21 µM
CCCCCCCCC(C)CCCCCCCCC(=O)OCC(COP(=O)([O-])OCC[N+](C)(C)C)OC(=O)CCCCCCCCC(C)CCCCCCCC (stereo unspecified)	inactive: > 100 µM
C/C(=N/NC(=S)Nc1ccccc1Cl)c1ccccn1	active: < 0.01 µM
Cc1nc2ccccc2c(=O)n1NC(=S)Nc1ccc(Cl)cc1[N+](=O)[O-]	inactive: > 100 µM
CCOC(=O)C1(CO)CSCCSC1	inactive: > 100 µM
COc1cc2c(cc1O)C1CC(CC3CCCCN31)OC(=O)/C=C\c1ccc(O)c-2c1 (stereo unspecified)	inactive: 24.2 µM
CCc1cccc(C(C)C)c1NC(=O)/C(=N\NC(N)=O)C(C(=O)OC)c1cnc2ccccc2n1 (stereo unspecified)	inactive: 57.3 µM
CCOc1ccc(Nc2nc(C)c(C(=O)/C=C/c3ccc(Cl)cc3Cl)s2)cc1	inactive: 35.2 µM
N#C/C(=C\c1cn(Cc2ccccc2)c2ccccc12)c1nn(-c2ccccc2)c(N)c1C#N	inactive: 15.1 µM
CCOC(=O)C(NC(=O)CC)(Nc1ccc(F)cc1F)C(F)(F)F (stereo unspecified)	inactive: > 100 µM

SMILES	GI50
O=C(O)C(Cc1cccs1)NC(=O)C(F)(F)F (stereo unspecified)	inactive: > 100 µM
CC1=C(C(=O)NCc2ccccc2)C(c2ccc([N+](=O)[O-])cc2)C(C(=O)NCc2ccccc2)=C(C)N1	inactive: 28.1 µM
C=C(COC(C)=O)CC(OC(C)=O)c1ccccc1 (stereo unspecified)	inactive: > 100 µM
Cc1cnc2c(c1)C(=O)C1=C(OC(C)(C)CC1O)C2=O (stereo unspecified)	inactive: 15.1 µM
O=C(NC12CC3CC(CC(C3)C1)C2)C(=O)c1c[nH]c2ccc(Cl)cc12	inactive: 86.9 µM
O=C(c1ccc(Cl)cc1)c1ccc(OCCSCCCCCCCCCCSCCOc2ccc(C(=O)c3ccc(Cl)cc3)cc2)cc1	inactive: > 100 µM
CC(=O)OCC(OC(C)=O)C(OC(C)=O)C(/C=N\Nc1nc2ccccc2c(=O)[nH]1)OC(C)=O (stereo unspecified)	inactive: > 100 µM
COC(=O)[C@@]12C=CC(=O)[C@H]3C[C@@H](C(C(C)C)C1)[C@]32OC (stereo partly specified)	inactive: > 100 µM
Cc1cccc2c1C/C(=C1\CCc3c(C)cccc31)C2=O	inactive: > 100 µM
CCN(CC)CCNc1c(OC)cc(C)c2sc3ccccc3c(=O)c12	inactive: 10.5 µM
CC(=O)OC1C2CCC3CC2C2(SCCS2)C31 (stereo unspecified)	inactive: 45.9 µM
O=C1NC(=O)c2c1n(Cc1ccccc1)c(=O)n2Cc1ccccc1	inactive: > 100 µM
NCCCc1c(-c2ccccc2)[nH]c(N)nc1=O	inactive: > 100 µM
C[C@H]1[C@H](C)CC[C@]2(C(=O)OC3OC(CO)C(O)C(O)C3O)CC[C@]3(C)C(=CC[C@@H]4[C@@]5(C)C[C@@H](O)[C@@H]6OC(=O)c7cc(O)c(O)c(O)c7-c7c(cc(O)c(O)c7O)C(=O)OC[C@]6(CO)[C@@H]5CC[C@]43C)[C@H]12 (stereo partly specified)	inactive: 14.1 µM
[N-]=[N+]=Nc1c(-c2ccccc2)c(Cl)nc2ccccc12	inactive: 29.3 µM
Cc1cc(NS(=O)(=O)c2ccc(/N=N/c3c(O)c(C(=O)O)cc4ccccc34)cc2)nc(C)n1	inactive: > 100 µM
C/C(CC(=O)Nc1cccc(Cl)c1C)=N\N=C(N)N	inactive: > 100 µM
COc1cccc(-c2nc(-c3cnccn3)n(C/C=C/c3ccccc3)n2)c1	inactive: > 10 µM
O=C1C[C@@]23CCC4(CC2=CCC[C@H]3O1)OCCO4	inactive: > 100 µM
O=C(CCCl)NN=C1NCCN1	inactive: > 100 µM
Cc1c2ccccc2cc2nc3ccccc3n12	inactive: > 10 µM
COC(=O)C1OC(O[C@H]2CC[C@]3(C)[C@H]4CC=C5[C@@H]6CC(C)(C)CC[C@]6(C(=O)OC)CC[C@@]5(C)[C@]4(C)CC[C@H]3C2(C)C)C(O)C(O)C1O (stereo partly specified)	inactive: 16.4 µM

SMILES	GI50
CC(=O)C1(c2ccccc2)CCN(Cn2sc3nc(C)cc(C)c3c2=O)CC1	inactive: 64.6 µM
Cc1cccc(C)c1NC(=O)C(=O)C(c1ccccc1Cl)S(=O)(=O)Cc1ccccc1Cl (stereo unspecified)	inactive: > 100 µM
CC(=O)O[C@@H]1C[C@]2(C(=O)c3ccccc3)C(=O)C(=O)S[C@]12c1ccccc1	inactive: > 100 µM
COc1ccc2[nH]cc(CN3CCC(CO)(c4ccccc4)CC3)c2c1	inactive: 44.5 µM
CCOC(=O)C(=Cc1ccccc1Cl)C(=O)OCC	inactive: 1.8 µM
COC(=O)c1ccc(/N=N/N(C)COc2ccc(Br)cc2)cc1	inactive: > 100 µM
Cc1ccc2c(n1)C(=O)c1cc(C)c(C)cc1C2=O	inactive: 61.1 µM
CCCC/C=C/C=C/C=C/CCCCCCCC(=O)OCC(COC(=O)CCCCCCC/C=C/C1C=CC(CCCC)C(C(=O)O)C1C(=O)O)OC(=O)CCCCCCC/C=C/C=C/C=C/CCCC.OCCNCO (stereo unspecified)	inactive: 24.9 µM
N#Cc1cccc(N2C(=O)C3C4C=CC(C3C2=O)C2C(=O)N(c3cccc(C#N)c3)C(=O)C42)c1 (stereo unspecified)	inactive: > 63.1 µM
CS(=O)(=O)c1nc(N)nc2nc[nH]c12	inactive: > 100 µM
Cc1ccc(NC(=O)c2cc(S(=O)(=O)Nc3n[nH]c(=O)n3-c3ccccc3)c(S)cc2Cl)cc1	inactive: > 100 µM
Cc1cc(C)nc(NS(=O)(=O)c2ccc(NN=c3c4ccccc4n(C)c4ccccc34)cc2)n1	inactive: 36.9 µM
CCn1cc(C(=O)O)c(=O)c2cc(F)c(N3CCN(CN4C(=O)/C(=N\NC(=O)c5ccncc5)c5cc(Cl)ccc54)CC3)cc21	inactive: 49.9 µM
O=C(O)CNC(=O)CO/N=C1/C(=C2/C(=O)Nc3ccccc32)Nc2ccccc21	inactive: > 100 µM
O=C(Cc1ccc2ccccc2c1)NCc1ccc(C(=O)NCCc2ccccc2)cc1	inactive: > 100 µM
O=C1C2C(c3ccccc3)NC(c3ccccc3)C1C(c1ccccc1)NC2c1ccccc1 (stereo unspecified)	inactive: > 100 µM
O=C(O)CC(C(=O)O)c1ccccc1[N+](=O)[O-] (stereo unspecified)	inactive: > 100 µM
COc1cccc(/C=N/[N+](C)(C)C)c1O	inactive: > 10 µM
N#CCCC1(CCC#N)CCCCCCCCC(CCC#N)(CCC#N)C(=O)C1=O	inactive: > 100 µM
COC(=O)C(C(=O)C(=O)Nc1ccc(C(F)(F)F)cc1[N+](=O)[O-])c1csc(-n2nc(-c3ccccc3)cc2-c2ccccc2)n1 (stereo unspecified)	inactive: > 100 µM
CC(=O)/C(=C\Nc1c(C)n(C)n(C)c1=O)C(=O)c1ccccc1	inactive: > 50 µM
c1ccc2/c3[nH]/c(c2c1)=N\c1ccc(cc1)-c1nc2cc(ccc2o1)/N=c1/[nH]/c(c2ccccc12)=N/c1ccc2nc(oc2c1)-c1ccc(cc1)\N=3	inactive: > 100 µM

SMILES	GI50
O=C(c1c(F)c(F)c(F)c(F)c1F)N1CCN(C(=O)c2c(F)c(F)c(F)c(F)c2F)C1=S	inactive: 16.3 µM
Nc1nc2cc(CNc3ccc(C(=O)NC(CCC(=O)O)C(=O)O)cc3)ccc2nc1-c1ccccc1 (stereo unspecified)	inactive: > 10 µM
CCOC(=O)c1[nH]c(COC(C)=O)c2c1CCCCCCCCCC2	inactive: > 100 µM
C=CCN(C(C)=O)c1cc(OCc2ccccc2)c2c(c1)c(C)cn2S(=O)(=O)c1ccccc1	inactive: 9.86 µM
CC(=O)Nc1ccc(C(=O)NN2C(=O)CSC2c2ccccc2)cc1 (stereo unspecified)	inactive: > 100 µM
Cn1c(-c2ccccc2)cc(-c2ccc3c(c2)OCO3)c1-c1cccs1	inactive: > 100 µM
COc1c(-c2nc3ccc(N4CCN(C)CC4)nc3[nH]2)cc(OC)c2c1nc(CO)n2C	inactive: > 100 µM
Nc1nc(=S)[nH]c2nc3c(c(-c4ccccc4)c12)CCCC3	inactive: > 100 µM
O=[N+]([O-])/C(Cl)=C(/C(Cl)=C(Cl)Cl)N1CCCCC1	inactive: 15.8 µM
C[S+](C)CCOC(=O)C(=[N+]=[N-])c1ccc([N+](=O)[O-])cc1	inactive: > 100 µM
C/C(=C\C(C[C@](C)(O)C(O)CCC#C[Si](C)(C)C)S(=O)(=O)c1ccccc1)CC/C=C/CO[Si](C)(C)C(C)(C)C (stereo partly specified)	inactive: 17.6 µM
CC12CCC3[C@@H](CC3(C)C)C(O)(CCC1=O)C2 (stereo partly specified)	inactive: > 100 µM
COc1cc2c(cc1C[C@H]1[C@@H]3C[C@H]4c5c(c6ccccc6n5C)C[C@@H]([C@@H]3CO[C@]1(C)OC(C)=O)N4C)c1c(n2C)C2C[C@H]3C(C(C)=O)=COC[C@H]3[C@H](C1)N2C	inactive: 3.35 µM
C1=C(c2ccccc2)O[C@H](COCc2ccccc2)C(OCc2ccccc2)[C@@H]1OCc1ccccc1 (stereo partly specified)	inactive: > 10 µM
COc1ccc2c(c1)O[C@H]1c3ccc(O)cc3OC[C@@H]21	inactive: 35.7 µM
Oc1[nH]c(Nc2ccc(F)c(Cl)c2)nc2ncnc1-2	inactive: > 100 µM
C=C(CN(C)C)C(=O)c1ccccc1[N+](=O)[O-]	inactive: > 73.6 µM
c1ccc(Nc2nnc(-c3nsc4ccccc34)o2)cc1	inactive: > 100 µM
CCN(CC)C(=S)SNCc1ccc(S(N)(=O)=O)cc1	inactive: 36.4 µM
CCN(CC)CCNc1ccc2nnn3c4ccc([N+](=O)[O-])cc4c(=O)c1c23	inactive: 5.26 µM
